{"source": "PubChem BioAssay (NCATS)", "key": {"[1]": {"target": "ATPase family AAA domain-containing protein 5 (Homo sapiens) (UniProt Q96QE3)", "sequence (Q96QE3 whole entry, looked up, the tested form may be a part)": "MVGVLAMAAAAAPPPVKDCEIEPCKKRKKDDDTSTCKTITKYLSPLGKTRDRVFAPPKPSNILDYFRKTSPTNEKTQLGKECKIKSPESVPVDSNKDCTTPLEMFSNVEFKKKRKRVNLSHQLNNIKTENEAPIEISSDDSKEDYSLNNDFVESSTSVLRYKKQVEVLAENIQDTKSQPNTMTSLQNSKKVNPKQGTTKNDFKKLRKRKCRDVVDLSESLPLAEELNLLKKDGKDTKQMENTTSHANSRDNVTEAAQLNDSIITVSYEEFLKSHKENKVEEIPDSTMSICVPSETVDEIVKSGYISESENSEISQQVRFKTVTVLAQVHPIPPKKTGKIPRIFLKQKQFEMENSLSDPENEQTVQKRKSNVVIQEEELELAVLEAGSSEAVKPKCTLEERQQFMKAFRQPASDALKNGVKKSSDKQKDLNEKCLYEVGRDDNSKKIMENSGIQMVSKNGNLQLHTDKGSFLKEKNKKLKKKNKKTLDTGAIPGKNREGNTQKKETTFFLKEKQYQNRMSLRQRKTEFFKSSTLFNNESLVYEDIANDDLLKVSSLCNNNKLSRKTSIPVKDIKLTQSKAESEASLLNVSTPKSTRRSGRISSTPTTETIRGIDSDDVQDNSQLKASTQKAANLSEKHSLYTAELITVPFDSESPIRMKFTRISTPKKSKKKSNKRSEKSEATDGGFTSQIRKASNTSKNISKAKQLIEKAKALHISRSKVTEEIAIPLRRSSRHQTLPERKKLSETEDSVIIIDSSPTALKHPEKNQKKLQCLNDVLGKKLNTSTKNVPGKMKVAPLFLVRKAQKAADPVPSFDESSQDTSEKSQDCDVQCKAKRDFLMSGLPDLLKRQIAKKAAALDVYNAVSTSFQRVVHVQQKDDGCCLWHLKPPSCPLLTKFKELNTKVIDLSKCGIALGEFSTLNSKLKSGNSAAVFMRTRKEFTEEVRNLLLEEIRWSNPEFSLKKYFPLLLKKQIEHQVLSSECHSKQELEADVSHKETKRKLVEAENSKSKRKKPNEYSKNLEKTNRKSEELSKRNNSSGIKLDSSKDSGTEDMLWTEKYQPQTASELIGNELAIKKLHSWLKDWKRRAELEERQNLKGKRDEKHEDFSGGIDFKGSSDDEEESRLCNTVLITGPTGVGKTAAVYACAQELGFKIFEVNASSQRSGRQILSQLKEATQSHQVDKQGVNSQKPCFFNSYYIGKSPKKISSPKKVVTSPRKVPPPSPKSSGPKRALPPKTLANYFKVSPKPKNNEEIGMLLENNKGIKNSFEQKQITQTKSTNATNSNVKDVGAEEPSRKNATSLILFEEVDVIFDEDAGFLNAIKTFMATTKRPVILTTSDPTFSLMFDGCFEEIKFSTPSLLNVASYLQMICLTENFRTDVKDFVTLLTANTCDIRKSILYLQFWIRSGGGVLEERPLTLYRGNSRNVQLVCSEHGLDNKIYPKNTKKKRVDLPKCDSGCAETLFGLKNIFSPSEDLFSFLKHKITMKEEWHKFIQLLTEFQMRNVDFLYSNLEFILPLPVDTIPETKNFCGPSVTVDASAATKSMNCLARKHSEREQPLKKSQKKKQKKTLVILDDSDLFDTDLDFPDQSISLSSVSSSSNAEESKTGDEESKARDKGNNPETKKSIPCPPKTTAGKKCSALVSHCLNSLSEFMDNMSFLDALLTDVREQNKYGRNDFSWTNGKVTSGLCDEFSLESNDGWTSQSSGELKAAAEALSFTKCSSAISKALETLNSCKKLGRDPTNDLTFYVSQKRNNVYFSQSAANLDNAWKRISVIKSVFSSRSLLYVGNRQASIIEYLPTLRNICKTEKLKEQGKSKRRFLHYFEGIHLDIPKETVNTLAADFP", "experiment": "HTS assay for small molecules that inhibit ELG1-dependent DNA repair in human embryonic kidney (HEK293T) cells expressing luciferase-tagged ELG1: Hit Confirmation (AID 624248); note: nearly all actives have a fitted effect of over 55% in size; note: potency is the fitted concentration of half-maximal effect", "outline": "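HEK293T cells expressing luciferase-tagged ELG1 treated with 5-fluorouridine plus compound for 16 h at 37 C; luciferase activity then measured with ONE-Glo after 30 min at room temperature.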"}, "[2]": {"experiment": "qHTS screen for small molecules that inhibit ELG1-dependent DNA repair: Hit Confirmation with MMS Viability (AID 624251); note: nearly all actives have a fitted effect of over 60% in size; note: potency is the fitted concentration of half-maximal effect", "outline": "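CellTiter-Glo viability of ELG1-luc HEK293T cells after 16 h with compound plus 10 µM MMS.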"}, "[3]": {"experiment": "S16 Schwann cell PMP22 intronic element firefly luciferase assay (AID 624032); note: potency is the fitted concentration of half-maximal effect; nearly all actives have a fitted effect of over 30% in size", "outline": "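Rat S16 Schwann cells stably carrying firefly luciferase driven by a PMP22 intronic element, in 10% FBS, treated 24 h at 37 C. ONE-Glo luminescence normalized to PTC124 control and DMSO (0%); curves classed by r2, magnitude and activity.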"}, "[4]": {"experiment": "qHTS screen for small molecules that inhibit ELG1-dependent DNA repair: Hit Confirmation with 5FU Viability (AID 624250); note: potency is the fitted concentration of half-maximal effect", "outline": "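After 16 h incubation with test compounds and 10 µM final 5-fluorouridine, ELG1-luc HEK293T cell viability is read using CellTiter-Glo.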"}, "[5]": {"experiment": "S16 Schwann cell viability assay (CellTiter-Glo assay) (AID 624031);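 note: cellular ATP luminescence as a viability measure; potency is the fitted concentration of half-maximal effect; nearly all actives have a fitted effect of over 70% in size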", "details": "S16 rat Schwann cells viability, 24 h", "outline": "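Native S16 Schwann cells (rat), serum-containing medium, overnight attachment then 24 h drug exposure at 37 °C/5% CO2. CellTiter-Glo ATP signal; normalized to cell-free and vehicle wells.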"}, "[6]": {"experiment": "Confirmation and Secondary Assay for Modulators of Hemoglobin Beta Chain Splicing at IVS2 654 locus (AID 910);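 note: potency is the fitted concentration of half-maximal effect; potency of activators that raise GFP signal by restoring correct splicing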", "outline": "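HeLa cells stably expressing EGFP interrupted by β-globin IVS2-654 intron, seeded overnight in Opti-MEM/2% FCS, then treated 2 days at 37 °C. Restored splicing read as total peak GFP intensity per well by laser scanning cytometry (488 nm excitation, 500–520 nm emission); 500 nM antisense PNA as control.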"}, "[7]": {"experiment": "MultiTox-Fluor Cytotoxicity Assay - LYMP1-001 - Live Cells (AID 947); note: potency is the fitted concentration of half-maximal effect"}, "[8]": {"target": "Nuclear receptor ROR-gamma (Homo sapiens) (UniProt P51449)", "sequence (P51449 whole entry, looked up)": "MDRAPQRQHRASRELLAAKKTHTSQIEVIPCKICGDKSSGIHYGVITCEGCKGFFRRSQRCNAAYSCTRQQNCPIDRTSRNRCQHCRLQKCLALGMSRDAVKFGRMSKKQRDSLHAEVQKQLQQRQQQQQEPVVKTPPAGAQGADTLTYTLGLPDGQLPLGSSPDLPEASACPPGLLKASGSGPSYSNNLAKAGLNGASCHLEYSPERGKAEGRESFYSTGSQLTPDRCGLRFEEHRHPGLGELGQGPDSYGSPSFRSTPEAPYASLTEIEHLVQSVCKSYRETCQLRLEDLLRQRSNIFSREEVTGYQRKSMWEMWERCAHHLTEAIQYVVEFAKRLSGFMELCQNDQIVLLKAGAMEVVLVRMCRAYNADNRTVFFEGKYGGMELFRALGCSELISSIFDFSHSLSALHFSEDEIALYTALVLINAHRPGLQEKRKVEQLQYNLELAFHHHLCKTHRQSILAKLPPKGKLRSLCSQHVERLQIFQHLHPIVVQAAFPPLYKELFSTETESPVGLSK", "experiment": "qHTS assay for small molecule antagonists of the retinoid-related orphan receptor gamma (ROR-gamma) signaling pathway (AID 651802);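 note: CHO cells with doxycycline-induced ROR-gamma expression; series mostly up to about 92 µM; nearly all actives have a fitted effect of over 60% in size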", "outline": "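Luminescence (One-Glo, 30 min RT) measured 16 h after compound addition and doxycycline induction at 37C. Reporter: RORE-luciferase under TET-inducible ROR-gamma in CHO cells.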"}}, "note": "The inconclusive results got no clear call from the source; some entries with a clear call stand among them for comparison. For part of these data: No potency is given beside an inconclusive call; the fits are too rough. Active and inactive are the calls of the source. Calls come from the whole dose curve; as a rule, active = well fitted curve in the direction sought with a large enough effect; inconclusive = small, poorly fitted or top-dose-only effect, or another doubt; inactive = no such curve, though single readings can be large; an effect the other way counts as inactive or inconclusive. Tags give direction and shape of the fitted curve.", "data": [{"smiles": "O=c1[nH]c(=O)n(Cc2ccc(F)cc2)c(O)c1/C=N/Nc1ccccc1", "values": [{"measurement": "Potency", "setting": "[1]", "result": "inactive"}, {"measurement": "Potency", "setting": "[2]", "result": "inactive"}]}, {"smiles": "O=C1[C@@H]2C[C@@H]3C[C@H]1C[C@@](O)(C3)C2", "values": [{"measurement": "Potency", "setting": "[3]", "result": "inconclusive [inhibitor, single point]"}]}, {"smiles": "CCOC(=O)c1cccc(NS(=O)(=O)c2ccc(NC(C)=O)cc2)c1", "values": [{"measurement": "Potency", "setting": "[1]", "result": "active: 12.5 µM"}]}, {"smiles": "CN[C@@H]1C[C@@]2(C)O[C@@H]([C@@H]1OC)n1c3ccccc3c3c4c(c5c6ccccc6n2c5c31)C(=O)NC4", "values": [{"measurement": "Potency", "setting": "[1]", "result": "active: 0.5 µM"}, {"measurement": "Potency", "setting": "[4]", "result": "active: 11.2 µM"}]}, {"smiles": "C#C[C@]1(OC(C)=O)CC[C@H]2[C@@H]3CCC4=C/C(=N/O)CC[C@@H]4[C@H]3CC[C@@]21CC", "values": [{"measurement": "Potency", "setting": "[5]", "result": "inconclusive [cytotoxic, single point]"}]}, {"smiles": "COc1ccc(/C(=N/OC(C)=O)c2nccc3cc(OC)c(OC)cc23)cc1OC", "values": [{"measurement": "Potency", "setting": "[1]", "result": "inconclusive [inhibitor, partial curve, poor fit]"}, {"measurement": "Potency", "setting": "[4]", "result": "inconclusive [rising, partial curve]"}]}, {"smiles": "CCOc1ccc(-c2c(C)n(-c3ccc(OCC)cc3)c3[n+]2CCCCC3)cc1", "values": [{"measurement": "Potency", "setting": "[1]", "result": "inconclusive [inhibitor, partial curve]"}, {"measurement": "Potency", "setting": "[4]", "result": "inconclusive [cytotoxic, partial curve]"}]}, {"smiles": "C/C=C1\\C2C=C(C)CC1(N)c1ccc(=O)[nH]c1C2", "note": "(stereo not drawn)", "values": [{"measurement": "Potency", "setting": "[3]", "result": "inconclusive [inhibitor, single point]"}]}, {"smiles": "CCN1CCC[C@@H](OC(=O)C(c2ccccc2)c2ccccc2)C1", "values": [{"measurement": "Potency", "setting": "[3]", "result": "inconclusive [inhibitor, full curve, poor fit]"}]}, {"smiles": "CCC(C)C(NC(=O)CCCNC(=O)CCC(=O)OC1O[C@H]2OC3(C)CC[C@H]4[C@H](C)CCC(C1C)C24OO3)C(=O)O", "note": "(stereo partly drawn)", "values": [{"measurement": "Potency", "setting": "[1]", "result": "inconclusive [inhibitor, partial curve]"}, {"measurement": "Potency", "setting": "[4]", "result": "inactive"}]}, {"smiles": "CCOc1cccc(=NC2CCCCC2)c2c(C)n(C)c(C)c12", "values": [{"measurement": "Potency", "setting": "[1]", "result": "inconclusive [inhibitor, full curve]"}, {"measurement": "Potency", "setting": "[4]", "result": "inconclusive [cytotoxic, single point]"}, {"measurement": "Potency", "setting": "[2]", "result": "active: 7.91 µM"}]}, {"smiles": "CC1C(OC(=O)CCC(=O)NC(C)(C)CO)O[C@H]2OC3(C)CC[C@H]4[C@H](C)CCC1C24OO3", "note": "(stereo partly drawn)", "values": [{"measurement": "Potency", "setting": "[1]", "result": "inconclusive [inhibitor, partial curve]"}, {"measurement": "Potency", "setting": "[2]", "result": "inconclusive [cytotoxic, partial curve, poor fit]"}]}, {"smiles": "C[C@]12CC[C@@H]3c4ccc(O)cc4C[C@@H](CCCCCCCCCS(=O)CCCC(F)(F)C(F)(F)F)C3[C@@H]1CC[C@@H]2O", "note": "(stereo partly drawn)", "values": [{"measurement": "Potency", "setting": "[3]", "result": "inconclusive [inhibitor, partial curve, poor fit]"}]}, {"smiles": "Cc1ncc(C[n+]2csc(CCOP(=O)(O)O)c2C)c(N)n1", "values": [{"measurement": "Potency", "setting": "[3]", "result": "active: 7.21 µM"}]}, {"smiles": "COc1ccc(C(=O)CCC(=O)O)c2ccccc12", "values": [{"measurement": "Potency", "setting": "[3]", "result": "inconclusive [inhibitor, full curve, poor fit]"}]}, {"smiles": "O=C(Nc1ccncc1)c1cccn(Cc2ccccc2)c1=O", "values": [{"measurement": "Potency", "setting": "[1]", "result": "inactive"}]}, {"smiles": "C/C(=C(/CCOC(=O)C(C)C)SS/C(CCOC(=O)C(C)C)=C(\\C)N(C=O)Cc1cnc(C)nc1N)N(C=O)Cc1cnc(C)nc1N", "values": [{"measurement": "Potency", "setting": "[3]", "result": "inconclusive [inhibitor, full curve, poor fit]"}]}, {"smiles": "Cc1cccc(C(=O)O)c1O", "values": [{"measurement": "Potency", "setting": "[5]", "result": "inconclusive [cytotoxic, single point]"}]}, {"smiles": "CO/C1=C\\C(C)=C\\[C@@H](C)[C@@H](O)[C@H](C)C/C(C)=C/C=C/[C@H](OC)[C@H]([C@@H](C)[C@@H](O)[C@H](C)[C@H]2C[C@@H](O)[C@H](C)[C@@H](C(C)C)O2)OC1=O", "values": [{"measurement": "Potency", "setting": "[1]", "result": "inactive"}, {"measurement": "Potency", "setting": "[4]", "result": "inactive"}, {"measurement": "Potency", "setting": "[2]", "result": "inconclusive [cytotoxic, partial curve]"}]}, {"smiles": "C[C@H](CCCC(C)(C)O)[C@H]1CC[C@H]2[C@@H]3CC=C4C[C@@H](O)CC[C@]4(C)[C@H]3CC[C@]12C", "values": [{"measurement": "Potency", "setting": "[5]", "result": "inconclusive [rising, partial curve, poor fit]"}]}, {"smiles": "CC1OC(O[C@@H]2C(O)CC(O[C@@H]3C(O)C[C@@H](OC4CC[C@]5(C)[C@H](CC[C@H]6[C@@H]5CC[C@]5(C)C(C7=CC(=O)OC7)C(O)C[C@@]65O)C4)OC3C)OC2C)CC(O)C1O", "note": "(stereo partly drawn)", "values": [{"measurement": "Potency", "setting": "[6]", "result": "inconclusive [activator, full curve]"}]}, {"smiles": "Cc1ccc(N)c([N+](=O)[O-])c1", "values": [{"measurement": "Potency", "setting": "[7]", "result": "inconclusive [cytotoxic, full curve, poor fit]"}, {"measurement": "Potency", "setting": "[8]", "result": "inactive"}]}]}
